PubChem BioAssay (NCATS)
This list was built around the results that the source calls inconclusive (neither active nor inactive); the mix of calls is not that of the screen. For some assays here: No potency is given beside an inconclusive call; the fits are too rough. Active and inactive are the calls of the source. Unless noted, the call rests on the fitted dose curve; in most records, active means well fitted curve in the direction sought with a large enough effect; inconclusive means small, poorly fitted or top-dose-only effect, or another doubt; inactive means no such curve, though single readings can be large; an effect the other way counts as inactive or inconclusive.

Experiments:
[1] = A High-Content qHTS Against Drug Library for the Identification of Small Molecules that Inhibit DYT1 Early Onset Primary Dystonia-Associated Cell Pathology (AID 1645839; calls by dose curve; further: potency means the concentration at half of the fitted maximal effect)
Method in brief: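 Flp-In T-REx 293 cells with tetracycline-inducible EGFP-delE hTOR1A (WT EGFP-hTOR1A as reference), 800 cells/well; compound added with tetracycline, 48 h at 37 C. Fixed, permeabilized cells imaged; %pathology (punctate TorsinA) primary, cell count counterscreen.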

[2] = system: CP266; test: qHTS profiling for inhibitors of Plasmodium falciparum proliferation (AID 504749); further: nearly all actives have a fitted effect of over 60% in size; further: potency means the concentration at half of the fitted maximal effect; settings: P. falciparum in erythrocytes, SYBR Green DNA, 72 h; series mostly up to 28.7 µM
Method in brief: (§1)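 Readout was DNA-dye fluorescence from lysed cultures, ex 485/em 535 nm. Parasitized red cells had grown 72 h with compound; data scaled between 0.29 uM artemisinin and DMSO wells and corrected using vehicle-only plates.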

[3] = system: DIV14; test: as above; settings: P. falciparum in erythrocytes, SYBR Green DNA, 72 h; series mostly up to 28.7 µM
Method in brief: as §1

[4] = qHTS of pediatric cancer cell lines to identify multiple opportunities for drug repurposing: Primary screen for Rh30 cells (AID 1347107); further: nearly all actives have a fitted effect of over 75% in size; further: potency means the concentration at half of the fitted maximal effect; on activity change, negative = cytotoxic: on the % scale 0 is the no-effect control and ±100 the full control effect
Method in brief: (§2)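 Viability after 48 h compound treatment at 37C, 500-1,000 cells/well, read as ATP luminescence with CellTiter-Glo. Primary screens used 11-point (MIPE, 0.78 nM-46 µM) or 8-point (NPC, 0.59 nM-46 µM) final concentrations; follow-up screens used 11-point dilutions.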

[5] = system: Zika virus NS2B-NS3 protease; test: Primary screen GU AMC qHTS for Zika virus inhibitors (AID 1347154);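 further: 0% = no-inhibitor control and -100% = no-enzyme control; nearly all actives have a fitted effect of over 70% in size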
Method in brief: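 Unlinked Zika NS2B hydrophilic domain–NS3 protease complex at 25 nM in 10 mM Tris-HCl pH 8.0, 0.01% Tween 20, with an AMC peptide substrate. Fluorescence change (340/450 nm) over 15 min at room temperature, normalized to controls, fitted to 4-parameter Hill.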

[6] = system: CP335; test: qHTS profiling for inhibitors of Plasmodium falciparum proliferation (AID 504749); further: nearly all actives have a fitted effect of over 60% in size; further: potency means the concentration at half of the fitted maximal effect; settings: P. falciparum in erythrocytes, SYBR Green DNA, 72 h; series mostly up to 28.7 µM
Method in brief: as §1

[7] = system: UISO; test: qHTS assay to identify novel small-molecules to repurpose for Merkel cell carcinoma treatment (AID 1296009); settings: MCC and control cell lines, CellTiter-Glo viability, 72 h; activity change, negative = cytotoxicity: at 46 µM (top of the series); further: nearly all actives have a fitted effect of over 60% in size; further: potency means the concentration at half of the fitted maximal effect; on activity change, negative = cytotoxicity: on the % scale 0 is the no-effect control and ±100 the full control effect
Method in brief: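 Cells were incubated with compound for 72 hr at 37 degree celsius before CellTiter-Glo addition. Luminescence was normalized with no-cell wells as full cytotoxicity and DMSO as baseline.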

[8] = qHTS of pediatric cancer cell lines to identify multiple opportunities for drug repurposing: Confirmatory screen for MG 63 (6-TG R) cells (AID 1347119); further: potency means the concentration at half of the fitted maximal effect; nearly all actives have a fitted effect of over 55% in size
Method in brief: as §2

[9] = Quantitative High-Throughput drug screen in 47 multiple myeloma cell lines against the NCATS MIPE library collection: ARP1_JJKsccF8 cell viability assay (AID 1918928; further: potency means the concentration at half of the fitted maximal effect; nearly all actives have a fitted effect of over 40% in size)
Method in brief: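 ATP readout (CellTiter-Glo), 48 h drug incubation, 37 °C/5% CO2, 500 cells per well; normalisation to DMSO (100%) and media-only (0%) controls.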

[10] = Quantitative High-Throughput drug screen in 47 multiple myeloma cell lines against the NCATS MIPE library collection: INA6_PLB cell viability assay (AID 1918965; further: potency means the concentration at half of the fitted maximal effect; nearly all actives have a fitted effect of over 55% in size); settings: INA6 myeloma viability, CellTiter-Glo ATP luminescence, 48 h; viability (% of control): at 45.8 µM (top of the series)
Method in brief: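 qHTS of the MIPE 4.0 collection: 500 myeloma cells/well, 48 h drug exposure at 37C in 5% CO2, then CellTiter-Glo for 5 min at room temperature before luminescence reading.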

[11] = Quantitative High-Throughput drug screen in 47 multiple myeloma cell lines against the NCATS MIPE library collection: KMS26_JCRB cell viability assay (AID 1918975); further: potency means the concentration at half of the fitted maximal effect; nearly all actives have a fitted effect of over 45% in size
Method in brief: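 Steps: seed 500 cells per well; pin-transfer MIPE 4.0 library; incubate 48 h at 37C, 5% CO2, humidified; add CellTiter-Glo, 5 min room temperature; read luminescence.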

[12] = Quantitative High-Throughput drug screen in 47 multiple myeloma cell lines against the NCATS MIPE library collection: OCIMY1_PLB cell viability assay (AID 1918979); further: potency means the concentration at half of the fitted maximal effect; nearly all actives have a fitted effect of over 35% in size
Method in brief: (§3)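 Viability after 48 h drug exposure was measured as ATP-dependent luminescence. Cells, 500 per well, sat at 37 °C under 5% CO2; DMSO wells set 100%, media-only wells 0%.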

[13] = Quantitative High-Throughput drug screen in 47 multiple myeloma cell lines against the NCATS MIPE library collection: OCIMY5_PLB cell viability assay (AID 1918988); further: potency means the concentration at half of the fitted maximal effect; nearly all actives have a fitted effect of over 65% in size
Method in brief: as §3

[14] = Quantitative High-Throughput drug screen in 47 multiple myeloma cell lines against the NCATS MIPE library collection: U266_ATCC cell viability assay (AID 1919864); further: potency means the concentration at half of the fitted maximal effect; nearly all actives have a fitted effect of over 35% in size
Method in brief: as §3

[15] = Drug repurposing screens with cells derived from glioblastoma tumor samples (AID 1345199); settings: GBM patient neurospheres viability, ATP luminescence, 48 h; Potency: tumour line A unless noted; activity, negative = cell killing: at 46 µM (top of the series), tumour line A unless noted; further: nearly all actives have a fitted effect of over 40% in size; further: potency means the concentration at half of the fitted maximal effect; on activity, negative = cell killing: on the % scale 0 is the no-effect control and ±100 the full control effect
Method in brief: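 Four patient lines of CD133+ GBM neurospheres were screened at several concentrations; hits were retested in those lines plus three slower-growing GBM lines, using 48-hour treatment and ATP-based viability.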

[16] = NFAT Signaling Pathway (AID 444; active means well fitted curve in either direction with a large enough effect, not every such curve was filed as active; inconclusive means small, poorly fitted or top-dose-only effect, or another doubt;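 further: carbachol stimulus at about its EC50 of 1 µM final; on the % scale 0 is the no-effect control and ±100 the full control effect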); settings: Jurkat NFAT-bla M1, carbachol, beta-lactamase ratio, 5 h; at 17.2 µM (top of the series)
Method in brief: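 Jurkat cells with NFAT-driven β-lactamase reporter and co-expressed M1 receptor, stimulated with carbachol (final 1 uM, ~EC50), compound titration, 5 h at 37 °C. CCF4 loaded 1 h at RT; 460/530 nm ratio gave %activity and AC50.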

[17] = Quantitative High-Throughput drug screen in 47 multiple myeloma cell lines against the NCATS MIPE library collection: MOLP8_DSMZ cell viability assay (AID 1918977); further: potency means the concentration at half of the fitted maximal effect; nearly all actives have a fitted effect of over 45% in size
Method in brief: as §3

[18] = Quantitative High-Throughput drug screen in 47 multiple myeloma cell lines against the NCATS MIPE library collection: SKMM1_PLB cell viability assay (AID 1919863); settings: SKMM1 myeloma viability, CellTiter-Glo ATP, 48 h; viability: active compounds read low; further: potency means the concentration at half of the fitted maximal effect; nearly all actives have a fitted effect of over 35% in size
Method in brief: as §3

[19] = Quantitative High-Throughput drug screen in 47 multiple myeloma cell lines against the NCATS MIPE library collection: KMS27_JCRB cell viability assay (AID 1918970); settings: KMS27 myeloma cells, CellTiter-Glo ATP viability, 48 h; viability (% of DMSO): at 45.8 µM (top of the series); further: potency means the concentration at half of the fitted maximal effect; nearly all actives have a fitted effect of over 30% in size
Method in brief: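 Myeloma cells (500 per well) were exposed to MIPE 4.0 compounds for 48 h at 37 °C, 5% CO2; viability was read as ATP luminescence with CellTiter-Glo, normalized to DMSO-only (100%) and media-only (0%) wells.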

[20] = Quantitative High-Throughput drug screen in 47 multiple myeloma cell lines against the NCATS MIPE library collection: LP1_DSMZ cell viability assay (AID 1918982); further: potency means the concentration at half of the fitted maximal effect; nearly all actives have a fitted effect of over 35% in size
Method in brief: as §3
Tags describe the fitted curve by direction and shape.

CC(C)C[C@@H]1[C@H](c2ccccc2)OC(=O)N1CCCN1CCCCCC1
Potency [1]: inconclusive [inhibitor, single point]

COc1cc(CNC(=O)CCCC/C=C/C(C)C)ccc1O
Potency [2]: inconclusive [inhibitor, partial curve, poor fit]
Potency [3]: inactive

CCCCCCCCCCCCCC[N+](C)(C)Cc1ccccc1
Potency [4]: inconclusive [cytotoxic, partial curve]
Potency [5]: inactive
Potency [1]: inconclusive [inhibitor, single point]
Potency [2]: active: 10.7 µM
Potency [6]: active: 4.78 µM
Potency [3]: active: 4.78 µM
Potency [7]: active: 6.68 µM

CCCCCOc1ccccc1/C(=C\SC)n1ccnc1
Potency [1]: inconclusive [inhibitor, single point]
Potency [7]: active: 18.8 µM

O=c1[nH]cnc2c1ncn2[C@@H]1O[C@H](CO)[C@@H](O)[C@H]1O
Potency [4]: inactive
Potency [1]: inactive

CNC(=O)c1nn(C)c2c1C(C)(C)Cc1cnc(Nc3ccc(N4CCN(C)CC4)cc3)nc1-2
Potency [8]: inconclusive [cytotoxic, full curve]
Potency [9]: active: 4.69 µM
Potency [10]: active: 0.743 µM
Potency [11]: active: 13.2 µM
Potency [12]: active: 5.26 µM
Potency [13]: active: 1.18 µM
Potency [14]: active: 0.935 µM

NCCNCCNCCNCCN
activity change, negative = cytotoxic [4]: inactive: 7.05% [at 9.22 µM]
Potency [15]: inconclusive [inhibitor, partial curve]

Cc1c(C)c2c(c(C)c1OC(=O)c1cccnc1)CC[C@@](C)(CCC[C@H](C)CCC[C@H](C)CCCC(C)C)O2
Potency [2]: inconclusive [activator, partial curve]

CCCCCCCCCCCCSCCOCCO
Potency [5]: inactive

CCCCCCCCOc1ccc(C(=O)c2ccccc2)c(O)c1
Potency [2]: inconclusive [activator, partial curve, poor fit]
Potency [15]: inconclusive [inhibitor, partial curve]
Potency [7]: inactive

CC1(C)O[C@@H]2C[C@H]3[C@@H]4CCC5=CC(=O)C=C[C@]5(C)[C@@]4(F)[C@@H](O)C[C@]3(C)[C@]2(C(=O)CO)O1
activity change, negative = inhibition [16]: inconclusive: 32.2% [activator]

Cn1cc(C2=C(c3c4n(c5ccccc35)CCC(CN)C4)C(=O)NC2=O)c2ccccc21 (configuration not stated)
Potency [4]: inconclusive [cytotoxic, single point]
Potency [10]: active: 3.72 µM
Potency [11]: active: 18.7 µM
Potency [17]: active: 13.2 µM
Potency [12]: active: 20.9 µM
Potency [13]: active: 8.33 µM
Potency [7]: inconclusive [inhibitor, single point]

COc1ccc2cc3[n+](cc2c1OC)CCc1cc2c(cc1-3)OCO2
activity change, negative = inhibition [16]: inconclusive: -67.5% [inhibitor]
Potency [9]: active: 6.62 µM
Potency [11]: active: 5.9 µM
Potency [12]: inconclusive [cytotoxic, partial curve, poor fit]
Potency [13]: active: 14.8 µM
Potency [18]: active: 14.8 µM
Potency [14]: active: 9.35 µM
Potency [2]: inconclusive [inhibitor, partial curve, poor fit]
Potency [6]: active: 0.953 µM
Potency [3]: active: 0.849 µM

CCc1c2c(nc3ccc(O)cc13)-c1cc3c(c(=O)n1C2)COC(=O)[C@]3(O)CC
Potency [8]: inconclusive [cytotoxic, full curve, poor fit]
Potency [19]: active: 0.0059 µM
Potency [11]: active: 2.35 µM
Potency [17]: active: 0.166 µM
Potency [18]: active: 0.469 µM
Potency [7]: active: 0.0209 µM

Cc1cnn(C)c1C(=O)Nc1cc(Nc2ccc3c(C=Cc4ccccn4)n[nH]c3c2)ccc1F
Potency [4]: inconclusive [cytotoxic, partial curve]
Potency [9]: inconclusive [cytotoxic, partial curve]
Potency [17]: inconclusive [cytotoxic, single point]
Potency [12]: inconclusive [cytotoxic, single point]
Potency [20]: active: 20.9 µM
Potency [13]: inconclusive [cytotoxic, single point]

CC1(C)OC[C@@H]2O[C@@]3(C(=O)O)OC(C)(C)O[C@H]3[C@@H]2O1
activity, negative = cell killing [15]: inconclusive: -33% [inhibitor]

O=C(O)CCNC(=O)c1ccccc1
activity change, negative = inhibition [16]: inactive: 3.54%
Potency [2]: inconclusive [inhibitor]
Potency [3]: inactive
